Results taken from PubChem BioAssay AID1030 (National Center for Advancing Translational Sciences (NCATS), 2008).
Screen size: about 220,000 compounds; about 16,000 (7.3%) were called active. Inconclusive means that the source gave no clear call. Such entries were picked first, then a sample of the others. Calls follow the shape of the dose curve; as a rule, active = well fitted inhibition curve with a large enough effect (not every such curve was filed as active); inconclusive = small, poorly fitted or top-dose-only effect, or another doubt; inactive = no such curve, though single readings can be large or run the other way. Potencies of inconclusive entries are left out as doubtful fits. The source holds several records for some structures; these can differ, active in one and inactive in another.

Molecular target: Aldehyde dehydrogenase 1A1 (Homo sapiens) (UniProt P00352)
Assay: qHTS Assay for Inhibitors of Aldehyde Dehydrogenase 1 (ALDH1A1);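 as to activity, negative = inhibition: plate controls were no enzyme wells and a reference inhibitor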
Settings: Purified ALDH1A1, NADH fluorescence, propionaldehyde substrate; series mostly up to 75.3 µM; activity, negative = inhibition: at the top concentration
Potency is read from the fitted curve at half-maximal effect; tags tell the direction and shape of the fitted curve.

UniProt P00352, sequence (P00352 whole entry, looked up): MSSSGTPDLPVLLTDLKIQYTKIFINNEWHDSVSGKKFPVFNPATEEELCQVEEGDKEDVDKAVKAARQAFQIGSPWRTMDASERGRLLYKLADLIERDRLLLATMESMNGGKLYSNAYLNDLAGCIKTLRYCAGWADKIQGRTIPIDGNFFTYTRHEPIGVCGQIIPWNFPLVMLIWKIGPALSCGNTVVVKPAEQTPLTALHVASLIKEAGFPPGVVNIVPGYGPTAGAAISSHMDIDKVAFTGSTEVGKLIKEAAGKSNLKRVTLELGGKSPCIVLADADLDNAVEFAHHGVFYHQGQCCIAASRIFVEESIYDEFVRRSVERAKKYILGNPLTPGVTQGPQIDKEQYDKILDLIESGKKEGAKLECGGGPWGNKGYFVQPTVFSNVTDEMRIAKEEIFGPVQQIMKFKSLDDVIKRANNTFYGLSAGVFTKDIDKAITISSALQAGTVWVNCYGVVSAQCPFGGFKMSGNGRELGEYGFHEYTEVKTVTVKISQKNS

| Compound | Potency | activity, negative = inhibition |
| --- | --- | --- |
| c1cc2ccc3cccc4ccc(c1)c2c34 | inconclusive [inhibitor, partial curve] | – |
| COC(=O)c1ccc2ccn(CC(=O)NC(C)C)c2c1 | inconclusive [inhibitor, partial curve] | – |
| O=C(Nc1nnc(SCc2ccccc2Cl)s1)C1COc2ccccc2O1 (configuration not stated) | inconclusive [inhibitor, partial curve, poor fit] | – |
| CC(C)Cc1nc(N2CCNCC2)c(C#N)c2c1CCC2 | inconclusive [inhibitor, partial curve] | – |
| CCCC(CCC)C(=O)OC[N+](C)(C)CCOC(=O)C(O)(c1ccccc1)C1CCCC1 (configuration not stated) | inconclusive [inhibitor, full curve, poor fit] | – |
| O=C1NC(=O)N(c2cccc(F)c2)C(=O)/C1=C/c1ccc(N2CCOCC2)cc1 | active: 5.01 µM | – |
| CCC(C(=O)N1CCC2(CC1)OCCO2)c1ccccc1 (configuration not stated) | inconclusive [inhibitor, single point] | – |
| Cc1nc2cc([N+](=O)[O-])ccc2c(=O)n1-c1ccccc1[N+](=O)[O-] | active: 31.6 µM | – |
| Oc1ccc2c3c1O[C@H]1c4[nH]c5c(c4C[C@@]4(O)[C@@H](C2)N(CC2CC2)CC[C@]314)C[C@@]1(O)[C@H]2Cc3ccc(O)c4c3[C@@]1(CCN2CC1CC1)[C@H]5O4 | inactive | – |
| CC[C@]1(O)C(=O)OCc2c1cc1n(c2=O)Cc2cc3ccccc3nc2-1 | inconclusive [inhibitor, partial curve] | – |
| CC(C#N)CCC#N (configuration not stated) | – | inactive: 8.89% |
| Cc1cc(C=C(C#N)C#N)ccc1N1CCCC1 | inconclusive [inhibitor, partial curve] | – |
| CNC(=O)c1cccn(Cc2ccc(C(F)(F)F)cc2)c1=O | inconclusive [inhibitor, single point] | – |
| C[C@@H]1CC[C@H]2[C@@H](C)C(=O)O[C@@H]3OC4(C)CC[C@@H]1[C@]32OO4 | active: 25.1 µM | – |
| CC(C)(C)OOC(=O)c1ccccc1 | inconclusive [inhibitor, single point] | – |
| CCC(=NCc1ccc2c(c1)OCO2)c1c(O)n(C2CCCCC2)c(=O)[nH]c1=O | active: 12.6 µM | – |
| Cc1ccc2c(c1)C1CN(C)CCC1N2C(=O)COc1ccc(S(=O)(=O)N2CCOCC2)cc1 (configuration not stated) | – | inactive: 8.46% |
| COc1ccc2nc3oc(C(=O)N4CCC5(CC4)OCCO5)cc3cc2c1 | inconclusive [inhibitor, partial curve] | – |
| CN1C(=O)N(C)C(=O)C2(Cc3ccccc3N3CCOCC32)C1=O (configuration not stated) | active: 20 µM | – |
| CNC(=S)N/N=C1\C2CN3CCN(C2)CC1(c1ccccc1)C3 | – | inactive: -2.12% |
| CCCCC(CC)COC(=O)c1ccccc1C(=O)OCC(CC)CCCC (configuration not stated) | active: 22.4 µM | – |
| CCOc1ccc(-c2cc(C)[n+](CCO)c(-c3ccc(OCC)cc3)c2)cc1 | inconclusive [inhibitor, partial curve] | – |
| O=C(CCCOc1ccc(Cl)cc1Cl)N1CCC2(CC1)OCCO2 | inconclusive [inhibitor, single point] | – |
| N#CC1(c2ccccc2)CCN(C2CC(=O)N(c3cccc(F)c3)C2=O)CC1 (configuration not stated) | inconclusive [inhibitor, single point] | – |
| COP(=S)(OC)Oc1ccc([N+](=O)[O-])cc1 | active: 20 µM | – |
| CC(O)CNc1ccc([N+](=O)[O-])c2cccnc12 (configuration not stated) | inconclusive [inhibitor, single point] | – |

| Compound | Potency | activity, negative = inhibition |
| --- | --- | --- |
| Cc1nn(Cc2ccccc2)c(C)c1C=C1C(=O)NC(=S)NC1=O | inconclusive [inhibitor, single point] | – |
| C=CCN1C(=O)C2(C(C(=O)OCC)=C(N)Oc3ccccc32)C2=C1CCCC2=O (configuration not stated) | active: 3.98 µM | – |
| Cc1c(C(=O)c2cccc3ccccc23)c2cccc3c2n1[C@H](CN1CCOCC1)CO3 | active: 11.2 µM | – |
| NCCCC(=O)OC1N=C(c2ccccc2Cl)c2cc(Br)ccc2NC1=O (configuration not stated) | – | inactive: 3.12% |
| Oc1cccc(Cl)c1 | – | inactive: 2.16% |
| Cc1ccc(-c2nn(CCC#N)cc2C(=O)O)cc1C | – | inactive: 18.1% |
| O=Cc1ccccc1 | active: 3.16 µM | – |
| C1=C(c2c[nH]c3ccccc23)CCNC1 | inconclusive [inhibitor, single point] | – |
| CC/C(CC(c1ccccc1)c1c(O)c2ccccc2oc1=O)=N\NC(N)=S (configuration not stated) | inconclusive [inhibitor, single point] | – |
| O=c1c2ccccc2ncn1-c1ccc([N+](=O)[O-])c(C(F)(F)F)c1 | – | inactive: 8.71% |
| CN(C)c1cccc2c(C#N)ccc(N(C)C)c12 | inconclusive [inhibitor, single point] | – |
| O=C(CN1CCCC1)Nc1ccc(Cl)cc1C(=O)c1ccccc1 | inconclusive [inhibitor, single point] | – |
| CN1CCN(c2ccc(/C=C3\C(=O)NC(=S)N(c4cccc(Br)c4)C3=O)o2)CC1 | inconclusive [inhibitor, partial curve] | – |
| N[C@@H](Cc1c[nH]c2ccccc12)c1nnc(SCc2ccccc2)o1 | inconclusive [inhibitor, single point] | – |
| C=CCn1c(O)c(/C=C2\C=Nc3ccccc32)c(=O)[nH]c1=O | inconclusive [inhibitor, partial curve] | – |
| S=c1[nH]c2cc(Br)cnc2[nH]1 | active: 3.16 µM | – |
| OCCCBr | – | inactive: -6.72% |
| CSc1nc(N2CCN(C)CC2)c2ccccc2n1 | inconclusive [inhibitor, single point] | – |
| N#CC(O)c1ccccc1 (configuration not stated) | – | inactive: 0.16% |
| Cn1c(O)c(C=NC2CCCCC2)c(=O)[nH]c1=S | inconclusive [inhibitor, single point] | – |
| Cc1cc(OCC(=O)OC(C)(C)C)c2c3c(c(=O)oc2c1)CCC3 | inconclusive [inhibitor, partial curve] | – |
| CCc1[nH]nc2c1C(c1cccnc1)C(C#N)=C(N)O2 (configuration not stated) | inconclusive [inhibitor, single point] | – |
| O=C(Nc1ccc(OC(=O)N2CCCCC2)cc1)N1CCOCC1 | inconclusive [inhibitor, single point] | – |
| CC1=C(C(=O)O)N2C(=O)[C@@H](NC(=O)CCCC(=O)O)[C@H]2SC1 | – | inactive: -4.43% |
| O=[N+]([O-])c1ccc2c3c(cccc13)CC2 | active: 3.16 µM | – |
| N#CC(c1ccc(Cl)nn1)c1c(F)cccc1Cl (configuration not stated) | active: 14.1 µM | – |

| Compound | Potency | activity, negative = inhibition |
| --- | --- | --- |
| O=NN(c1ccccc1)c1ccccc1 | inconclusive [inhibitor, single point] | – |
| N#CC1(c2ccccc2)CCN(C2CC(=O)N(c3ccc4c(c3)OCO4)C2=O)CC1 (configuration not stated) | active: 8.91 µM | – |
| COc1ccccc1N1CCN(Cc2cc(C)c(C)cc2O)CC1 | – | inactive: -2.87% |
| CNCCc1nc(N)n[nH]1 | – | inactive: 6.32% |
| CSc1ncc(/C=C2/C(=O)NC(=O)N(c3ccc(C)cc3)C2=O)cn1 | inconclusive [inhibitor, partial curve, poor fit] | – |
| CN1C(=O)N(C)C(=O)C2(Sc3ccccc3C2=O)C1=O | inconclusive [inhibitor, single point] | – |
| O=C(c1cc2c(s1)CCCCCC2)N1CCC2(CC1)OCCO2 | inconclusive [inhibitor, single point] | – |
| Nc1ccc2cc(Br)ccc2c1 | active: 17.8 µM | – |
| CN(C)c1ccc(/C=C2/C(=O)NC(=O)N(CCc3ccc(F)cc3)C2=O)cc1 | active: 0.631 µM | – |
| CCCOP(=O)(OCCC)c1nc(-c2ccccc2)oc1NCc1ccccc1 | inconclusive [inhibitor, partial curve] | – |
| O=C1NC(=O)N(Cc2ccccc2)C(=O)/C1=C/c1cnn(-c2ccccc2)c1 | active: 10 µM | – |
| CC(=O)Nc1cc(C(=O)N2CCC3(CC2)OCCO3)ccc1S(=O)(=O)c1ccc(Cl)cc1 | inconclusive [inhibitor, single point] | – |
| O=C(N=Nc1c(O)[nH]c(=O)[nH]c1=O)C1COc2cc3ccccc3cc2O1 (configuration not stated) | inconclusive [inhibitor, partial curve, poor fit] | – |
| O=[N+]([O-])c1ccc(Cl)cc1 | – | inactive: 4.11% |
| Oc1cc(O)c2c(c1)OC(c1cc(O)c(O)c(O)c1)C(O)C2 (configuration not stated) | inconclusive [inhibitor, single point] | – |
| Cc1ccc(OCC(=O)N2CCN(C3CCC(c4ccccc4)CC3)CC2)cc1 (configuration not stated) | inconclusive [inhibitor, single point] | – |
| O=C(Nc1ccccc1)OC1CN=C(N[N+](=O)[O-])NC1 (configuration not stated) | inconclusive [inhibitor, single point] | – |
| CC(C)OC(=O)Nc1cccc(Cl)c1 | – | inactive: -1.17% |
| O=C(O)C1CN(CP(=O)(O)O)CCN1 (configuration not stated) | – | inactive: 2.17% |
| COc1ccc(-n2c(-c3ccc(C)cc3)nc3ccccc3c2=O)cc1 | active: 7.94 µM | – |
| O=c1[nH]c(O)c(C=Nc2ccccc2Oc2ccccc2)c(=O)[nH]1 | inconclusive [inhibitor, partial curve] | – |
| Nc1nc(/C(=C/CC(=O)O)C(=O)NC2C(=O)N3C(C(=O)O)=CCSC23)cs1 (configuration not stated) | inconclusive [inhibitor, single point] | – |
| Cc1ccc2c(c1)=C/C(=C\c1c(O)[nH]c(=S)[nH]c1=O)C(=O)N=2 | active: 3.55 µM | – |
| Cc1cc(OC(=O)N2CCCCC2)c(C(C)C)cc1[N+](C)(C)C | – | inactive: -4.89% |
| Cc1cc(OCc2nn[nH]n2)c2c3c(c(=O)oc2c1)CCC3 | inconclusive [inhibitor, partial curve] | – |
